Measurements published in patent publication US9072734B2, “Quaternary ammonium salt compounds” (Teijin Pharma Limited, priority 2009, dated 2015).
Some results were stated once for a whole list of compounds, not compound by compound. At least one structure is not confirmed: it was looked up by name or label, or the drawing left a doubt.

Legend:
[1] = system: histamine-induced bronchoconstriction in guinea pigs; assay: Effects on histamine-induced bronchoconstriction in guinea pigs; type: in vivo, guinea pig; conditions: for percentage of bronchoconstriction suppression with respect to the histamine stimulation: 6 hours after 25 μg/kg of compounds were administered; for ID50 with respect to bronchoconstrictor response due to histamine stimulation: intratracheal administration, histamine one hour after administration of the compounds
[2] = system: acetylcholine-induced bronchoconstriction in guinea pigs; assay: Effects on acetylcholine-induced bronchoconstriction in guinea pigs; type: in vivo, guinea pig; conditions: for ID50 with respect to bronchoconstrictor response due to acetylcholine stimulation: intratracheal administration, acetylcholine one hour after administration of the compounds; for percentage of bronchoconstriction suppression with respect to the acetylcholine stimulation: 24 hours after 25 μg/kg of the compounds were administered
Experimental: These in vivo assays are used to evaluate the bronchoprotective effects based on the M3 muscarinic receptor antagonist activity and the β2 adrenergic receptor agonist activity of test compounds. Hartley male guinea pigs (Nippon SLC, Inc.) weighing about 400-500 g were used. The animals were anesthetized by inhalation of Fluothane (Takeda Pharmaceutical Company Limited) in a plastic box. The test compounds were dissolved in physiological saline containing DMSO, and administered through the nasal cavity into the trachea at a dose of 0.04-25 μg/kg and at a volume of 0.4 mL/kg. For control animals, solvent without a test compound was administered. In general, animals awake several minutes after completion of the administration. The animals were anesthetized with an intraperitoneal administration of 33% urethane/0.8% α-chloralose at a dose of 3 mL/kg. In order to intravenously administer acetylcholine or histamine, a catheter was inserted into the carotid artery. In order to measure artificial respiration and airway ventilation pressure, a cannula was inserted into the trachea. Artificial respiration was applied to the animals at a volume of 10 mL/kg and at a frequency of 60/minute, using a ventilator (Harvard Apparatus). The airway ventilation pressure was measured by the Konzett-Roessler method using a general respiratory function analysis system (M.I.P.S). Prior to administration of acetylcholine or histamine, the airway ventilation pressure was measured and baseline values were recorded. Then, physiological saline was administered through the carotid artery catheter at a volume of 0.4 mL/kg, and the airway ventilation pressure was measured. Bronchoconstrictor response was induced by administering acetylcholine (40 μg/kg, 0.4 mL/kg) or histamine (15 μg/kg, 0.4 mL/kg) through the carotid artery catheter one hour after the administration of the test compounds, and the airway ventilation pressure at the maximum contractile response was recorded. In addition, in order to evaluate duration of action of the test compounds, the above-mentioned dose of acetylcholine or histamine was administered, 1 hour, 6 hours, 12 hours, 18 hours, and 24 hours after the administration of test compounds, and the airway ventilation pressure was measured in the same way. The percentage of suppression by the test compounds with respect to the airway contractile response was calculated according to the following formula. (%) Percentage of the airway constriction suppression=(Airway ventilation pressure of test compound-dosed and acetylcholine- or histamine-dosed animals−Baseline value)/(Airway ventilation pressure of acetylcholine- or histamine-dosed animals−Baseline value)×100
The 50% inhibitory doses (ID50 values) of the test compounds were analyzed by a sigmoidal logistic model using XLfit4 (IDBS, Ltd.) for the percentage of the bronchoconstriction suppression at different doses of the test compounds.

[3] = target: T1, human M3 muscarinic receptor (Homo sapiens, UniProt P20309); assay: Competition binding assays to human M3 muscarinic receptor ([3H]-NMS displacement, membrane fractions); conditions: competition with 1 nM [3H]-NMS
T1 construct: expressed in transfected cells; host or cells: CHO-K1
T1 sequence (P20309 whole entry): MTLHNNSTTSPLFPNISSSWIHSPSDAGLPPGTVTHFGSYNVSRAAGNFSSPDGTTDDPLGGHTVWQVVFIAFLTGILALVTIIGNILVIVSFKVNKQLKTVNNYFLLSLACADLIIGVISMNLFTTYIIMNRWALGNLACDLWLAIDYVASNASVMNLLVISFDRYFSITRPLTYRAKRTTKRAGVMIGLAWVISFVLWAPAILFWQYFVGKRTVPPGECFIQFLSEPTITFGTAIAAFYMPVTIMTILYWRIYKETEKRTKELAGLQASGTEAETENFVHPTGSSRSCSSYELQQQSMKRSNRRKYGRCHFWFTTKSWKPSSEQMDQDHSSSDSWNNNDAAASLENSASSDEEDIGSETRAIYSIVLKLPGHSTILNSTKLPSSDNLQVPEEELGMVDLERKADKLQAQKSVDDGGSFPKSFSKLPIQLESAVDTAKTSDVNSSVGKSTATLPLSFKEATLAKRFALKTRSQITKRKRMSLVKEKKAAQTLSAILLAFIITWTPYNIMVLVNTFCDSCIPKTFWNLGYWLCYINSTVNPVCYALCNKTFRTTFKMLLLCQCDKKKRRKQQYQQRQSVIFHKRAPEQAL
Experimental: Membrane fractions of human M3 muscarinic receptor were purchased from PerkinElmer, Inc. and stored at −80° C. until use. Phosphate buffered saline (PBS(−), Invitrogen, Co.) was used as assay buffer. The membrane fractions of human M3 muscarinic receptor (10-15 μg of membrane protein) and 1 nM L-[N-methyl-3H]scopolamine methyl chloride ([3H]—NMS) (NET636, 2.59 TBq/mmol, PerkinElmer, Inc.) were added to a final volume of 100 μL and incubated for 2 hours at room temperature (total binding). […] The amount of nonspecific binding was determined in the presence of 5 μM atoropine. […] The filter plates were washed three times with a washing solution (50 mM Tris hydrochloric acid pH 7.4, 0.9% sodium chloride) to remove unbound radioactivity. The plates were then dried and 40 μL Microscint-20 liquid TopCount microplate scintillation cocktail (PerkinElmer Inc.) was added and plates were counted in a Packard TopCount liquid scintillation counter (PerkinElmer, Inc.). The percentage of the binding inhibition by the test compound was calculated according to the following formula. (%)Percentage of binding inhibition=[(Radioactivity of test compound-added sample−Amount of nonspecific binding)/(Amount of total binding−Amount of nonspecific binding)]×100 […]

Structure (SMILES)	percentage of bronchoconstriction suppression with respect to the histamine stimulation [1] [%]	ID50 with respect to bronchoconstrictor response due to histamine stimulation [1]	ID50 with respect to bronchoconstrictor response due to acetylcholine stimulation [2]	percentage of bronchoconstriction suppression with respect to the acetylcholine stimulation [2] [%]	IC50 [3] [nM]
C[N+]1(C)CCC(OC(=O)Nc2cc(CCC(=O)Nc3ccc(CNC[C@H](O)c4ccc(O)c5[nH]c(=O)ccc45)cc3)ccc2-c2ccccc2)CC1.O=C([O-])C(F)(F)F [Example 1, 4-({[5-(2-{[4-({[(2R)-2-hydroxy-2-(8-hydroxy-2-oxo-1,2-dihydroquinolin-5-yl)ethyl]amino}methyl)phenyl]carbamoyl}ethyl)-2-phenylphenyl]carbamoyl}oxy)-1,1-dimethylpiperidin-1-ium trifluoroacetate]	≥ 30	less than 1 μg/kg	less than 1 μg/kg	–	–
COc1cc(NC(=O)CCCc2ccc(-c3ccccc3)c(NC(=O)O[C@@H]3C[C@@H]4[C@H]5O[C@H]5[C@H](C3)[N+]4(C)C)c2)c(Cl)cc1CNC[C@H](O)c1ccc(O)c2[nH]c(=O)ccc12.O=C([O-])C(F)(F)F [Example 34, (1R,2R,4S,5S,7S)-7-({[5-(3-{[2-chloro-4-({[(2R)-2-hydroxy-2-(8-hydroxy-2-oxo-1,2-dihydroquinolin-5-yl)ethyl]amino}methyl)-5-methoxyphenyl]carbamoyl}propyl)-2-phenylphenyl]carbamoyl}oxy)-9,9-dimethyl-3-oxa-9-azatricyclo[3.3.1.0^2,4]nonan-9-ium trifluoroacetate]	≥ 30	–	–	≥ 50	–
COc1cc(NC(=O)CCCc2ccc(-c3ccccc3)c(NC(=O)O[C@@H]3C[C@@H]4[C@H]5O[C@H]5[C@H](C3)[N+]4(C)C)c2)ccc1CNC[C@H](O)c1ccc(O)c2[nH]c(=O)ccc12.O=C([O-])C(F)(F)F [Example 36, (1R,2R,4S,5S,7S)-7-({[5-(3-{[4-({[(2R)-2-hydroxy-2-(8-hydroxy-2-oxo-1,2-dihydroquinolin-5-yl)ethyl]amino}methyl)-3-methoxyphenyl]carbamoyl}propyl)-2-phenylphenyl]carbamoyl}oxy)-9,9-dimethyl-3-oxa-9-azatricyclo[3.3.1.0^2,4]nonan-9-ium trifluoroacetate]	≥ 30	–	–	≥ 50	–
COc1cc(NC(=O)CCCc2ccc(-c3ccccc3)c(NC(=O)OC3C[C@H]4CC[C@H](C3)[N+]4(C)C)c2)c(Cl)cc1CNC[C@H](O)c1ccc(O)c2[nH]c(=O)ccc12.O=C([O-])C(F)(F)F (stereo partly drawn) [Example 48, (1R,3R)-3-{[5-(3-{[2-chloro-4-({[(2R)-2-hydroxy-2-(8-hydroxy-2-oxo-1,2-dihydroquinolin-5-yl)ethyl]amino}methyl)-5-methoxyphenyl]carbamoyl}propyl)-2-phenylphenyl]carbamoyl}oxy)-8,8-dimethyl-8-azabicyclo[3.2.1]nonan-8-ium trifluoroacetate]	–	–	–	–	< 10
COc1cc(NC(=O)CCCc2ccc(-c3ccccc3)c(NC(=O)OC3C[C@H]4CC[C@H](C3)[N+]4(C)C)c2)c(Cl)cc1CNC[C@H](O)c1ccc(O)c2[nH]c(=O)ccc12.O=C([O-])C(F)(F)F (stereo partly drawn) [Example 48]	≥ 30	less than 1 μg/kg	less than 1 μg/kg	≥ 50	–
COc1cc(NC(=O)CCCCc2ccc(-c3ccccc3)c(NC(=O)OC3CC[N+](C)(C)CC3)c2)c(Cl)cc1CNC[C@H](O)c1ccc(O)c2[nH]c(=O)ccc12.O=C([O-])C(F)(F)F [Example 51, 4-({[5-(4-{[2-chloro-4-({[(2R)-2-hydroxy-2-(8-hydroxy-2-oxo-1,2-dihydroquinolin-5-yl)ethyl]amino}methyl)-5-methoxyphenyl]carbamoyl}butyl)-2-phenylphenyl]carbamoyl}oxy)-1,1-dimethylpiperidin-1-ium trifluoroacetate]	≥ 30	less than 1 μg/kg	less than 1 μg/kg	–	–
COc1cc(NC(=O)CCCc2ccc(NC(=O)O[C@@H]3C[C@@H]4[C@H]5O[C@H]5[C@H](C3)[N+]4(C)C)c(-c3ccccc3)c2)c(Cl)cc1CNC[C@H](O)c1ccc(O)c2[nH]c(=O)ccc12.O=C([O-])C(F)(F)F [Example 55, (1R,2R,4S,5S,7S)-7-({[4-(3-{[2-chloro-4-({[(2R)-2-hydroxy-2-(8-hydroxy-2-oxo-1,2-dihydroquinolin-5-yl)ethyl]amino}methyl)-5-methoxyphenyl]carbamoyl}propyl)-2-phenylphenyl]carbamoyl}oxy)-9,9-dimethyl-3-oxa-9-azatricyclo[3.3.1.0^2,4]nonan-9-ium trifluoroacetate]	≥ 30	–	–	≥ 50	–
C[N+]1(CCOc2ccccc2)CCC(OC(=O)Nc2cc(CCC(=O)Nc3ccc(CNC[C@H](O)c4ccc(O)c5[nH]c(=O)ccc45)cc3)ccc2-c2ccccc2)CC1.O=C([O-])C(F)(F)F (stereo partly drawn) [Example 57, 4-({[5-(2-{[4-({[(2R)-2-hydroxy-2-(8-hydroxy-2-oxo-1,2-dihydroquinolin-5-yl)ethyl]amino}methyl)phenyl]carbamoyl}ethyl)-2-phenylphenyl]carbamoyl}oxy)-1-methyl-1-(2-phenoxyethyl)piperidin-1-ium trifluoro acetate]	–	–	–	≥ 50	–
COc1cc(NC(=O)CCCc2ccc(NC(=O)O[C@@H]3C[C@@H]4[C@H]5O[C@H]5[C@H](C3)[N+]4(C)C)c(-c3ccccc3)c2)c(Br)cc1CNC[C@H](O)c1ccc(O)c2[nH]c(=O)ccc12.O=C([O-])C(F)(F)F [Example 70, (1R,2R,4S,5S,7S)-7-({[4-(3-{[2-bromo-4-({[(2R)-2-hydroxy-2-(8-hydroxy-2-oxo-1,2-dihydroquinolin-5-yl)ethyl]amino}methyl)-5-methoxyphenyl]carbamoyl}propyl)-2-phenylphenyl]carbamoyl}oxy)-9,9-dimethyl-3-oxa-9-azatricyclo[3.3.1.0^2,4]nonan-9-ium trifluoroacetate]	–	–	–	≥ 50	–
C[N+]1(C)[C@@H]2C[C@@H](OC(=O)Nc3ccc(CCCC(=O)Nc4ccc(CNC[C@H](O)c5ccc(O)c6[nH]c(=O)ccc56)cc4Cl)cc3-c3ccccc3)C[C@H]1[C@@H]1O[C@@H]12.O=C([O-])C(F)(F)F [Example 71, (1R,2R,4S,5S,7S)-7-({[4-(3-{[2-chloro-4-({[(2R)-2-hydroxy-2-(8-hydroxy-2-oxo-1,2-dihydroquinolin-5-yl)ethyl]amino}methyl)phenyl]carbamoyl}propyl)-2-phenylphenyl]carbamoyl}oxy)-9,9-dimethyl-3-oxa-9-azatricyclo[3.3.1.0^2,4]nonan-9-ium trifluoroacetate]	≥ 30	–	–	≥ 50	–
